Data from PubChem BioAssay AID1461 (National Center for Advancing Translational Sciences (NCATS), 2008).
The campaign covered roughly 220,000 compounds. About 2,300 (1%) were called active. Inconclusive results, whose numbers are uncertain, are shown with a selection of clear calls. Calls come from the whole dose curve; as a rule, active = well fitted inhibition curve with a large enough effect; inconclusive = small, poorly fitted or top-dose-only effect, or effect the other way; inactive = no such curve, though single readings can be large or run the other way. A potency beside an inconclusive call is a rough fit, not a confirmed value.

Target: Neuropeptide S receptor (Homo sapiens) (UniProt Q6W5P4)
Experiment: qHTS Assay for Antagonists of the Neuropeptide S Receptor: cAMP Signal Transduction; note: nearly all actives have a fitted effect of over 50% in size
Settings: CHO-NPSR cells, cAMP TR-FRET, antagonist mode; activity change, negative = inhibition: at 38.3 µM (top of the series) unless noted
% is set by controls: 0 for no effect and ±100 for the full control effect; potency is the fitted concentration of half-maximal effect; tags give direction and shape of the fitted curve.

Sequence of UniProt Q6W5P4 (Q6W5P4 whole entry, looked up): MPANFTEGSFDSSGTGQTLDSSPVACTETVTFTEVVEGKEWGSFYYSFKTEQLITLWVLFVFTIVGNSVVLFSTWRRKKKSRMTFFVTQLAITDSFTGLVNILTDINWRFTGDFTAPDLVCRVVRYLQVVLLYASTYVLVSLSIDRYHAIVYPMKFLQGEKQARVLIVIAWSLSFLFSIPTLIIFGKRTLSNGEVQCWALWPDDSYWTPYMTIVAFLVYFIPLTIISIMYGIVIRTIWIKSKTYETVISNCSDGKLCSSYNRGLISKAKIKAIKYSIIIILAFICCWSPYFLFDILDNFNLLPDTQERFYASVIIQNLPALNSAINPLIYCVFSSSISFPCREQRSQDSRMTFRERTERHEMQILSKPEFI

SMILES	Potency	activity change, negative = inhibition
CN=c1scc(C)n1/N=C/c1ccc(O)cc1O	inactive	
O=S(=O)(c1cccc(NC(=S)N2CCN(c3cccc(Cl)c3)CC2)c1)C(F)F	inconclusive: 25.1 µM [inhibitor, single point]	
CC(C)CCCCCCNC(=S)Nc1ccc(S(=O)(=O)N2CCOCC2)cc1	inconclusive: 25.1 µM [inhibitor, single point]	
O=C(Cc1cccs1)N/N=C/C=C/c1ccccc1	inactive	
CC(=O)/C=C1\N(C)c2ccc(C)cc2C1(C)C	inactive	
COc1cccc(C2SCC(=O)N2c2ccc(C)cc2)c1OC (stereo unspecified)	inactive	
CCC(=O)Nc1ccc(S(=O)(=O)Nc2cccc(C)c2)cc1OC	inconclusive: 3.98 µM [inhibitor, single point]	
COc1cc2cc(CN(C(=O)NC3CCCCC3)C3CCCC3)c(=O)[nH]c2cc1OC	inconclusive: 12.6 µM [inhibitor, partial curve]	
Cc1ccc(C(C(=O)NC2CCCC2)N(C(=O)Cc2cccs2)c2ccc3c(c2)OCCO3)cc1 (stereo unspecified)	inconclusive: 15.8 µM [inhibitor, partial curve, poor fit]	
CCOC(=O)CSc1nc2c(sc3ccccc32)c(=O)n1CCCN1CCOCC1	inactive	
CC(/C=N/n1c(-c2n[nH]c3c2CCC3)n[nH]c1=S)=C\c1ccco1	inconclusive: 12.6 µM [inhibitor, single point]	
O=C(Nc1cccc(Cl)c1)Nc1cc(S(=O)(=O)N2CCCCC2)ccc1Cl	inconclusive: 10 µM [inhibitor, single point]	
COCc1nc2ccccc2n1Cc1ccc(Br)cc1	inconclusive: 0.631 µM [inhibitor, full curve, poor fit]	
CCOC(=O)/C(=N\Nc1ccccc1)P(=O)(c1ccccc1)c1ccccc1	active: 10 µM	
O=c1[nH]cnc2nc(-c3ccccc3)c(-c3ccccc3)nc12	inactive	
O=C(O)C1(P(=O)(c2ccccc2)c2ccccc2)CCCC1	inconclusive: 15.8 µM [activator, single point]	
Cc1ccc(S(=O)(=O)NCCCNC(=O)c2ccccc2)cc1	inconclusive: 0.0631 µM [inhibitor, partial curve, poor fit]	
COc1cc2c3nnc(-c4ccccc4)c-3cn(Cc3ccccc3F)c2cc1OC	active: 10 µM	
COc1ccc(NS(=O)(=O)c2ccc3c(c2)Cc2ccccc2-3)cn1	inconclusive: 10 µM [inhibitor, partial curve, poor fit]	
Cc1cc(C)nc(Nc2ccc(C(=O)O)cc2)n1	inactive	
Cc1ccc(CNC(=O)CSc2nc3ccccc3c3nc(C)nn23)cc1	inconclusive: 1.26 µM [inhibitor, full curve, poor fit]	
Cc1c(NC(=O)CSc2ccc(Cl)cc2)cccc1-c1nc2ncccc2o1	inactive	
Cc1cc2ccccn2c1C(=O)c1ccc(N/N=C/c2ccc(C(=O)O)cc2)c([N+](=O)[O-])c1	inactive	

SMILES	Potency	activity change, negative = inhibition
Cc1noc(C)c1CSCC(=O)N1CCN(c2ccc([N+](=O)[O-])cc2)CC1	inactive	
O=C(NC1CCCCC1)c1nn2c(C(F)(F)F)cc(-c3ccco3)nc2c1Br	inactive	
COc1ccc(-c2cn[nH]c2-c2ccc(OCc3ccc([N+](=O)[O-])cc3)cc2O)cc1	inconclusive: 12.6 µM [inhibitor, single point]	
O=C(N/N=C\c1ccc([N+](=O)[O-])o1)c1cncc(Br)c1	inactive	
CCOC(=O)C1CCCN(C(=O)c2sc3nc(-c4ccc(F)cc4)cn3c2C)C1 (stereo unspecified)	inconclusive: 3.98 µM [inhibitor, partial curve]	
CN(C)CCOCCOc1ccc(Cl)cc1C(C)(C)C	inactive	
CCN1CCc2nc(NC(=O)CC(c3ccccc3)c3ccccc3)sc2C1	inconclusive: 20 µM [inhibitor, single point]	
CCOc1ccccc1-c1nn2c(Cc3ccccc3)nnc2s1	inconclusive: 12.6 µM [inhibitor, partial curve]	
COc1cccc(N2CC(O)Cn3c2nc2c3c(=O)n(CCCc3ccccc3)c(=O)n2C)c1 (stereo unspecified)	inconclusive: 15.8 µM [inhibitor, partial curve]	
COc1ccccc1OCc1n[nH]c(=S)n1Cc1ccccc1	inconclusive: 25.1 µM [inhibitor, single point]	
CC1=NCCN1CCNC(=O)Nc1ccc(F)cc1	inactive	
Cc1ccc2[nH]c3c(N4CCCCCC4)ncnc3c2c1	inconclusive: 10 µM [inhibitor, single point]	
CC(C)(C)c1ccc(C(=O)Oc2ccccc2CCC(=O)O)cc1	inconclusive: 12.6 µM [activator, single point]	
CCc1cc2c3c(c1)C(C)CC(C)(C)N3C(=O)C2=O (stereo unspecified)	inconclusive: 12.6 µM [inhibitor, single point]	
COc1cnn(-c2ccccc2)c(=O)c1SCc1ccc(Cl)cc1Cl	inconclusive: 10 µM [inhibitor, single point]	
Cc1sc(NC(=O)C2CC=CCC2C(=O)O)c(C(=O)OC(C)C)c1C (stereo unspecified)		inconclusive: -32.7% [inhibitor] [at 46.1 µM]
C[C@@H]1CC=C[C@H]2[C@H]1C(=O)N(Cc1ccccc1)[C@H]2c1ccc(C(F)(F)F)cc1	inconclusive: 10 µM [inhibitor, single point]	
Cc1ccc(CNC(=O)CCNS(=O)(=O)c2ccc3c(c2)c(=O)n(C)c(=O)n3C)cc1	inconclusive: 5.01 µM [inhibitor, single point]	
Cc1oc(-c2ccc3c(c2)OCCO3)cc1C(=O)O	inconclusive: 3.16 µM [inhibitor, partial curve]	
Brc1ccccc1C1CC(c2ccccc2)=Nc2ccccc2N1 (stereo unspecified)	inactive	
CC(C)Cn1c(=O)c2c(nc3n2CCCN3CCc2ccccc2)n(C)c1=O	inconclusive: 6.31 µM [inhibitor, partial curve]	
CCOC(=O)C1=C(C)NC(=S)N(C(C)=O)C1c1ccc(Cl)cc1 (stereo unspecified)	inconclusive: 10 µM [inhibitor, single point]	
Cc1cc(/C=C2/NC(=O)NC2=O)c(C)n1-c1ccncc1	inactive	
